Data taken from PMC3795252, “SLP-76 Sterile α Motif (SAM) and Individual H5 α Helix Mediate Oligomer Formation for Microclusters and T-cell Activation*” (The Journal of Biological Chemistry, 2013).
No constants are given. Whether binding was seen depends on the method and setting. For some of these results: In cells and extracts the contact can be indirect. Some entries that bind do so weakly or less than the wild type.

Experiments:
[1] = target: T1, SLP-76 dN78 (SAM domain deletion mutant, residues 79–533), expressed in J14 Jurkat T-cells (human) (UniProt Q13094); assay: co-IP; J14 cells transfected with SLP-76 WT or dN78; isotype control or anti-CD3 ligation; precipitation with anti-HA, blot with anti-GADS, anti-ADAP and anti-SLP-76
T1 sequence: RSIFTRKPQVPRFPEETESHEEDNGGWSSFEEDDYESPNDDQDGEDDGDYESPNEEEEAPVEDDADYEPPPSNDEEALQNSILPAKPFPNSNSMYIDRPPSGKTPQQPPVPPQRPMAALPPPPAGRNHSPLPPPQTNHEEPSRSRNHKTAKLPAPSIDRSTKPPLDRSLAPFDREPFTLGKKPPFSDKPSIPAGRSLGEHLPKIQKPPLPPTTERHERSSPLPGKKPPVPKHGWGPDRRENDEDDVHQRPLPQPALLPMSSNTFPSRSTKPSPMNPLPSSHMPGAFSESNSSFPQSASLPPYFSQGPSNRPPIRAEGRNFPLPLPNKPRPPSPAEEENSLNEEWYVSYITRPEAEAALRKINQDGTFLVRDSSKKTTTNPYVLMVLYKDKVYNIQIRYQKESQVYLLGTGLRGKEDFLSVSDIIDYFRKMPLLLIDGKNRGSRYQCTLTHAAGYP

[2] = target: T2, SLP-76 wild type, full length, expressed in J14 Jurkat T-cells (human), Q13094; assay: as above; details: remark: other sources report otherwise
T2 chain: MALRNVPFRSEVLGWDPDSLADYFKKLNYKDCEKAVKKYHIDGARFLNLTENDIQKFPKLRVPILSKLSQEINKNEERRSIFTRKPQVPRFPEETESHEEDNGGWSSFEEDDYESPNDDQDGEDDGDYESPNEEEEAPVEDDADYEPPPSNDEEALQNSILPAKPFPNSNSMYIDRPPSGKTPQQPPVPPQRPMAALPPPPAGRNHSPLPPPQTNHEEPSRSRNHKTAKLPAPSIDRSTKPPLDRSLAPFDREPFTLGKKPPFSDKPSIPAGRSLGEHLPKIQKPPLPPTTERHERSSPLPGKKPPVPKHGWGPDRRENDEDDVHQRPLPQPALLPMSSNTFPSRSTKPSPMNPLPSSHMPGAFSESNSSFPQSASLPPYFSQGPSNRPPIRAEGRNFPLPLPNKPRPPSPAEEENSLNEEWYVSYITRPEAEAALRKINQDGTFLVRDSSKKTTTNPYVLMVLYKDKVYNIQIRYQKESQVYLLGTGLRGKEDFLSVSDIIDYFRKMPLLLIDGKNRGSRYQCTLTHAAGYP

[3] = target: T1, SLP-76 dN78 (SAM domain deletion mutant, residues 79–533), expressed in J14 Jurkat T-cells (human); assay: co-IP; J14 cells co-transfected with a His6-tagged and an EYFP-tagged copy; anti-CD3 ligation (2–15 min, 0.5–5 μg/ml); lysis, precipitation with anti-His, blot with anti-SLP-76
[4] = target: T3, SLP-76 dN57 (lacking SAM helices H1–H4, residues 58–533), expressed in J14 Jurkat T-cells (human) (UniProt Q13094); assay: as above
T3 sequence: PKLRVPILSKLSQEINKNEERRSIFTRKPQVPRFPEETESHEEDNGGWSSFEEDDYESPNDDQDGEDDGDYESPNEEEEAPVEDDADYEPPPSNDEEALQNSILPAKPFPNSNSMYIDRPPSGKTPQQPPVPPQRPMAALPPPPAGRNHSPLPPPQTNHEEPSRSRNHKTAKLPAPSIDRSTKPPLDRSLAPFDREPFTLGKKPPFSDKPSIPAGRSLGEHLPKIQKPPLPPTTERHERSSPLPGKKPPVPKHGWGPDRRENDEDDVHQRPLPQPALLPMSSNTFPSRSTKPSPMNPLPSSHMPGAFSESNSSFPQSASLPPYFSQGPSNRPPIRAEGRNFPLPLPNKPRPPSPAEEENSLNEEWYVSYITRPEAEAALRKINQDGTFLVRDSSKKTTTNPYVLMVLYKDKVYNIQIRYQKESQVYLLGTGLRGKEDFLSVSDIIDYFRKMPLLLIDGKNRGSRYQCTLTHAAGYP

[5] = target: SLP-76 wild type, full length, expressed in J14 Jurkat T-cells (human) (UniProt Q13094); assay: as above
[6] = target: SLP-76 wild type, full length, expressed in J14 Jurkat T-cells (human) (UniProt Q13094); assay: co-IP; J14 cells co-transfected with an EYFP-tagged and an HA-tagged copy; resting or anti-CD3 ligation for 5 min; precipitation with anti-GFP, blot with anti-GFP or anti-HA
[7] = target: SLP-76 wild type, full length, expressed in J14 Jurkat T-cells (human) (UniProt Q13094); assay: co-IP; as a3, but resting cells (isotype control instead of anti-CD3); precipitation with anti-His, blot with anti-SLP-76
[8] = target: SLP-76 SAM domain lacking the H5 helix (residues 1–61), recombinant (human) (UniProt Q13094); assay: MST; 10 nM NT-647-labelled protein titrated with the same protein unlabelled (0–90.5 μM, 1:1 dilutions); Monolith NT.115; 25 °C; 10 mM HEPES pH 7.5, 500 mM NaCl, 0.5 mM TCEP, 0.05% Tween 20; constant is of monomer to dimer; both purified

B1: ADAP (adhesion and degranulation promoting adapter protein) (protein, UniProt O15117 1-783)
chain: MAKYNTGGNPTEDVSVNSRPFRVTGPNSSSGIQARKNLFNNQGNASPPAGPSNVPKFGSPKPPVAVKPSSEEKPDKEPKPPFLKPTGAGQRFGTPASLTTRDPEAKVGFLKPVGPKPINLPKEDSKPTFPWPPGNKPSLHSVNQDHDLKPLGPKSGPTPPTSENEQKQAFPKLTGVKGKFMSASQDLEPKPLFPKPAFGQKPPLSTENSHEDESPMKNVSSSKGSPAPLGVRSKSGPLKPAREDSENKDHAGEISSLPFPGVVLKPAASRGGPGLSKNGEEKKEDRKIDAAKNTFQSKINQEELASGTPPARFPKAPSKLTVGGPWGQSQEKEKGDKNSATPKQKPLPPLFTLGPPPPKPNRPPNVDLTKFHKTSSGNSTSKGQTSYSTTSLPPPPPSHPASQPPLPASHPSQPPVPSLPPRNIKPPFDLKSPVNEDNQDGVTHSDGAGNLDEEQDSEGETYEDIEASKEREKKREKEEKKRLELEKKEQKEKEKKEQEIKKKFKLTGPIQVIHLAKACCDVKGGKNELSFKQGEQIEIIRITDNPEGKWLGRTARGSYGYIKTTAVEIDYDSLKLKKDSLGAPSRPIEDDQEVYDDVAEQDDISSHSQSGSGGIFPPPPDDDIYDGIEEEDADDGFPAPPKQLDMGDEVYDDVDTSDFPVSSAEMSQGTNVGKAKTEEKDLKKLKKQEKEEKDFRKKFKYDGEIRVLYSTKVTTSITSKKWGTRDLQVKPGESLEVIQTTDDTKVLCRNEEGKYGYVLRSYLADNDGEIYDDIADGCIYDND
Q: For B1, which binding [1] is on record?
A: binds

B2: ADAP (adhesion and degranulation promoting adapter protein), O15117 1-783 (protein)
chain: B1 chain
Q: B2 was tested. Which binding [2] did it give?
A: binds

B3: SLP-76 wild type, full length, expressed in J14 Jurkat T-cells (protein, UniProt Q13094 1-533)
chain: T2 chain
Q: Which results are given for B3?
A: binding [3]: no binding; binding [4]: binds; binding [5]: binds; binding [6]: binds; binding [7]: binds weakly

B4: SLP-76 dN57 (lacking SAM helices H1–H4, residues 58–533), expressed in J14 Jurkat T-cells (domain or fragment, UniProt Q13094 58-533)
chain: T3 sequence
Q: How did the binding [4] turn out when B4 was run?
A: binds

B5: SLP-76 dN78 (SAM domain deletion mutant, residues 79–533), expressed in J14 Jurkat T-cells (domain or fragment, UniProt Q13094 79-533)
chain: T1 sequence
Q: For B5, which binding [3] is on record?
A: no binding

B6: SLP-76 SAM domain lacking the H5 helix (residues 1–61), recombinant (domain or fragment, UniProt Q13094 1-61)
chain: MALRNVPFRSEVLGWDPDSLADYFKKLNYKDCEKAVKKYHIDGARFLNLTENDIQKFPKLR
Q: How did the binding [8] turn out when B6 was run?
A: no binding
